In paper PMC4336329 (PLoS ONE, 2015):
In all, about 310,000 compounds went through this assay and about 14,000 (4.5%) showed an effect of 50% or more. Effects have a minus sign here. Some of the results follow.

Molecular target: human ether-à-go-go-related gene (hERG) potassium channel (human, UniProt Q12809)
Assay: primary screen, population patch clamp on CHO cells stably expressing hERG
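Note: peak tail current of the secondary pulse compared with the same well before compound.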

Sequence of human ether-à-go-go-related gene (hERG) potassium channel (Q12809 whole entry, looked up): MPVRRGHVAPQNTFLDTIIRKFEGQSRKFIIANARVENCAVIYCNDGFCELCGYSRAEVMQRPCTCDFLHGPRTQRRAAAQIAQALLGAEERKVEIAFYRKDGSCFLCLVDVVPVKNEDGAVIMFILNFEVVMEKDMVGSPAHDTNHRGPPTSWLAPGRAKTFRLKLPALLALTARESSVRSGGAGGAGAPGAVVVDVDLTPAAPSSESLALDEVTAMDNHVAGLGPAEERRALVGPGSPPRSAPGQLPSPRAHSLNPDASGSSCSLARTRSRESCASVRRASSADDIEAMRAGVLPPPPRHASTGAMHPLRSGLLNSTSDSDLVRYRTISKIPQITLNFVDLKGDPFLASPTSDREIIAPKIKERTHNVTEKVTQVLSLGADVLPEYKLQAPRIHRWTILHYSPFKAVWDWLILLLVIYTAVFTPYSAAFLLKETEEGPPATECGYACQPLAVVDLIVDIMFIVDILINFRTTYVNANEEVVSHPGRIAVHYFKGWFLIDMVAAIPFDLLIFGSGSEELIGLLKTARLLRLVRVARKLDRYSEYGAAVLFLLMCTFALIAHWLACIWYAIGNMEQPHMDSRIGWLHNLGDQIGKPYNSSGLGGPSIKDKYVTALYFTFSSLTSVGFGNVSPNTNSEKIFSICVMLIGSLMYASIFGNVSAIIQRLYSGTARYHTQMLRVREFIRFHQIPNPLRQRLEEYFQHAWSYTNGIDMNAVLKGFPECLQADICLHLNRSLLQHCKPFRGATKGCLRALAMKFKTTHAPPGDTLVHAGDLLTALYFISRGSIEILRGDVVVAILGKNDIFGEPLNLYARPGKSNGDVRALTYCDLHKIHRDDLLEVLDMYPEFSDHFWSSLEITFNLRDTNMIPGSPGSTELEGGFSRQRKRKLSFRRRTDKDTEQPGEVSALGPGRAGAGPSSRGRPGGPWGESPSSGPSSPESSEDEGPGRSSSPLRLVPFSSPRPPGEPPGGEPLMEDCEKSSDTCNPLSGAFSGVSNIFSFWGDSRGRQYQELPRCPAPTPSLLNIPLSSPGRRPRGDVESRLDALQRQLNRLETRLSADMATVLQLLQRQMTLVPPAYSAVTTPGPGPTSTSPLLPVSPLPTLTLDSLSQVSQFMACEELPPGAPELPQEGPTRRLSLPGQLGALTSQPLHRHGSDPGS

Row | SMILES | hERG current change (%, negative = inhibition) at 10uM [%]
1 | Cc1ccc(C(=O)NCC(=O)OCC(=O)NCCc2ccccc2)s1 | 6.4
2 | Cc1ccccc1Cn1cccc1/C=C1/C(=N)N2C=CSC2=NC1=O | 5.35
3 | Cc1cc(NC(=O)C2CC(=O)N(c3cccc(Cl)c3)C2)no1 (stereo not shown) | -12.1
4 | O=C(CCN1C(=O)/C(=C/c2ccc(F)cc2)SC1=S)NCCCn1ccnc1 | -63.6
5 | N#Cc1c(-n2cccc2)cccc1-n1cccc1 | -2.09
6 | CCOC(CNC(=O)C(=O)Nc1cc2c3c(c1)CCC(=O)N3CCC2)OCC | 10.7
7 | CC(C)CC(OC(=O)c1ccco1)C(=O)NC1CCCC1 (stereo not shown) | -5.48
8 | CCCOc1ccc(CNC(=O)Cn2c(=O)oc3ccccc32)cc1 | -9.01
9 | CCOC(=O)c1c(C)[nH]c(C(=O)C(C)OC(=O)c2cccc(OCc3c(C)noc3C)c2)c1C (stereo not shown) | 8.88
10 | COc1ccc(C)cc1S(=O)(=O)N1CCCC(C(=O)NC2CC2)C1 (stereo not shown) | -0.49
11 | CC1(C)CCCN(Cc2c(O)ccc3c(=O)c(-c4nc5ccccc5s4)c(N)oc23)C1 | 3.68
12 | CC1CC(C)CN(C(=O)c2ccc(-c3ccc([N+](=O)[O-])cc3)o2)C1 (stereo not shown) | -69.1
13 | O=C(N/N=C/c1cnc(N2CCCCC2)s1)c1ccc(C(F)(F)F)cc1 | 25.5
14 | O=[N+]([O-])c1cc([N+](=O)[O-])c2cc(-c3cccnc3)[nH]c2c1 | 15.2
15 | CC(C)CN(CC(C)C)C(=O)c1cc(S(=O)(=O)N2CCCCC2)c[nH]1 | 2.01
16 | NC(=O)CCCn1c(C(=O)c2ccc(Cl)cc2)c2ccc(C(F)(F)F)cc2[n+]1[O-] | -77.9
17 | COc1cccc(OCC(O)CN2CCN(c3ccc(F)cc3)CC2)c1.Cl (stereo not shown) | -58.6
18 | CC(=O)c1cn(CC(=O)Nc2ccc(C)c(C)c2)c2ccccc12 | 20.8
19 | CCOc1ccc(CN(C)CC(=O)Nc2cccc(C)c2)cc1OC | -77
20 | O=[N+]([O-])c1ccc(/C=N/Nc2ccccn2)cc1 | 17.2
21 | CCOc1cccc2c1OC1(C)CC2NC(=O)N1c1ccc(OC)cc1 (stereo not shown) | 11.2
22 | CCOC(=O)CSc1cc(CS(=O)(=O)c2ccccc2)nc(-c2ccccc2)n1 | 8.85

Row | SMILES | hERG current change (%, negative = inhibition) at 10uM [%]
23 | COCCNC(=S)NC1CC2CCC(C1)N2Cc1ccccc1 (stereo not shown) | 2.78
24 | Cc1ccc(CCNC(=O)Cn2cccc2)cc1 | -3.83
25 | O=C(Nc1cccc(F)c1)c1coc(=O)c(Br)c1 | 5.32
26 | O=C(Cn1cccc1)Nc1ccc(OC(F)(F)F)cc1 | -7.17
27 | COc1cc(Cl)c(NS(=O)(=O)c2c(C(=O)N3CCCC3)c(C)n(C)c2C)c(OC)c1 | 4.89
28 | C=CCOc1ccc(CNCCc2ccc(S(N)(=O)=O)cc2)cc1.Cl | -81.4
29 | O=C(COc1ccc2ccccc2c1)NNC(=O)c1ccccc1 | 20.7
30 | O=C(Nc1ccccc1N1CCOCC1)c1cccc2c(Br)cccc12 | 23.8
31 | COc1ccc2[nH]c(C(=O)NCCN3CCOCC3)cc2c1 | 0.45
32 | Cc1ccc(O)c(NC(=S)NC(=O)C(C)C)c1 | 6.82
33 | CCC(c1nnnn1Cc1ccco1)N1CCN(c2cc(Cl)ccc2C)CC1.Cl (stereo not shown) | -8.76
34 | O=C(CCl)N1CCN(S(=O)(=O)Cc2ccccc2)CC1 | -2.13
35 | COc1ccc(NC(=O)NC(=O)c2ccccc2)cc1 | 18.6
36 | O=C(COC(=O)CNC(=O)c1ccco1)Nc1ncc(Cl)cc1Cl | 7.02
37 | Cc1cc(C(=O)NCCc2ccccc2)c2cc(F)ccc2n1 | 2.72
38 | COc1ccc(NC(=O)CN(C)C(=O)c2cccc(S(=O)(=O)N3CCN(Cc4ccccc4)CC3)c2)cc1 | -30.6
39 | Cc1cc(NS(=O)(=O)c2ccc(NC(=O)c3cccc(OC(F)F)c3)cc2)nc(C)n1 | 14.5
40 | N#C/C(=C\c1ccccc1C(F)(F)F)C(=O)Nc1ccccc1 | 3.67
41 | COc1ccc(S(=O)(=O)c2nnn(-c3ccccc3Cl)c2N)cc1 | 2.54
42 | Cc1cccc(N2CCN(C(=O)Cc3ccccc3[N+](=O)[O-])CC2)c1C | 1.57
43 | COc1ccc(NC(=O)CCCn2nc(C)c3c(C)n(-c4ccccc4)nc3c2=O)cc1 | 10.8
44 | O=C(O)c1ccc(-c2ccc(/C=c3/sc4nc5ccccc5n4c3=O)o2)cc1Cl | 20.8

Row | SMILES | hERG current change (%, negative = inhibition) at 10uM [%]
45 | Cc1ccc(CSCC(=O)N/N=C/c2cccc(OC3CSC3)c2)cc1 | 11.4
46 | O=C(CCCOc1ccc(Cl)cc1Cl)NCCCn1ccnc1 | -62.5
47 | Cc1cc(=O)oc2cc(Oc3ccc(C(N)=O)cc3[N+](=O)[O-])ccc12 | -20.7
48 | O=C(CCS(=O)(=O)c1ccc(Br)cc1)Nc1ccc(Br)cc1F | 0.146
49 | O=C(Nc1ccc(N2CCCCC2)cc1)c1ccc2ccccc2n1 | 22.5
50 | COc1cccc(-c2cc(C(=O)NC3CC3)c3ccccc3n2)c1 | -51.2
51 | COc1cc(CNc2ccccc2Oc2cc(=O)n(C)c(=O)n2C)cc(OC)c1OC | 4.95
52 | O=C(Nc1nc2c(cc3c4c(cccc42)CC3)s1)c1ccccc1Cl | 14.7
53 | O=C(COc1ccc(Br)cc1)Nc1ccc2c(c1)C(=O)NC2=O | 20.5
54 | CCc1ccc(-c2nn(-c3ccccc3C)cc2C(=O)N2CCN(C3CCS(=O)(=O)C3)CC2)cc1 (stereo not shown) | -1.98
55 | CCCCOC(=O)c1ccc(NC(=O)COC(=O)c2ccc3ncsc3c2)cc1 | -9.67
56 | O=C(CN1CCN(c2ccc(O)cc2)CC1)NC1CCCc2ccccc21 (stereo not shown) | 11
57 | O=C1C2C3CC(C(Br)C3Br)C2C(=O)N1CC1CCCO1 (stereo not shown) | -15.4
58 | COc1ccc(C(=O)COC(=O)c2sc(C)nc2C)cc1Cl | 9.06
59 | O=C(NCc1ccccc1)C1=C[C@@H](C2CC2)C[C@@H](OCCCCO)O1 | 6.29
60 | CCOC(=O)C1=C(C)N(C)C(=O)NC1c1ccc2c(c1)OCO2 (stereo not shown) | 12.2
61 | COc1ccc(OC)c(CNc2nc3ccccc3n2CCN2CCCCC2)c1 | -72.4
62 | Cc1cccc(CCNC(=O)C2CCCN(S(=O)(=O)c3cccc4nsnc34)C2)c1 (stereo not shown) | -7.04
63 | CC(=O)N1N=C(c2cccnc2)CC1c1ccccc1O (stereo not shown) | -3.56
64 | CCOC(=O)c1ccc(NC(=S)N(CCCN2CCCC2)Cc2cccs2)cc1 | -67.5
65 | O=C(CN1CCN(c2ccc(F)cc2)CC1)c1cccs1 | 35.6
66 | CCS(=O)(=O)N1CCC(C(=O)NCc2cc(OC)ccc2OC)CC1 | -1.66

Row | SMILES | hERG current change (%, negative = inhibition) at 10uM [%]
67 | COc1ccc(N=c2cc(-c3ccc(OC)cc3)oc3ccccc23)cc1 | 4.41
68 | COCCCNC(=O)CSc1nc2sc(C(=O)OC)c(C)c2c(=O)n1N | -24.6
69 | O=C(Nc1ccc(OCC(F)(F)C(F)F)cc1)c1ccncc1 | -33.9
70 | COc1cc2ccccc2cc1C(=O)N(CCN(C)C)c1nc2c(F)cccc2s1.Cl | -38.4
71 | O=C(c1cc2c(s1)-c1ccccc1OC2)N1CCC2(CC1)OCCO2 | -37.9
72 | CCOc1ccc(C(=O)Nc2ccncc2)cc1 | -7.53
73 | COc1ccc(-c2c(C(=O)O)c(-c3ccccc3)cn2C)cc1 | 28.8
74 | COCCN1C(=O)N[C@@H](CCc2ccccc2)[C@H](C(C)=O)[C@H]1C | 7.22
75 | O=C(CSCc1ccccc1Br)NNC(=S)NCc1ccco1 | 1.17
76 | O=C(Nc1ccc(Cl)c(C(F)(F)F)c1)[C@@H]1CC=C[C@@H]2CCN(C3CCCCC3)C(=O)[C@@H]21 | 8.19
77 | CN(C(=O)COC(=O)/C=C/c1ccc2c(c1)OCO2)c1c(N)n(Cc2ccccc2)c(=O)[nH]c1=O | 10.2
78 | Cc1nc(Oc2ccccc2)c2ccccc2n1 | 4.59
79 | Cc1ccc(-c2nnc(SCC(=O)N(CC(C)C)c3c(N)n(Cc4ccccc4)c(=O)[nH]c3=O)n2N)cc1 | -2.24
80 | NC(=O)CSc1nnc(-c2ccccn2)n1N | 9.98
81 | O=C(c1ccccc1)c1cncc(Br)c1 | 1.72
82 | CCOC(=O)Cc1csc(NC(=O)CC)n1 | 3.71
83 | COc1ccc(/C=N\NC(=O)c2ccccc2OC)cc1COc1c(F)c(F)c(F)c(F)c1F | 19.3
84 | COc1ccc(OC)c(NC(=O)C2CCN(C(=O)c3cccs3)CC2)c1 | 15.7
85 | O=C(CN1CCN(c2ccc(F)cc2)CC1)NCC1CCCO1 (stereo not shown) | -2.94
86 | O=C(Nc1ccccc1C(=O)NCC1CCCO1)c1ccccc1F (stereo not shown) | 12.4
87 | COc1ccc(-c2nc(CN3CCC(c4ccccc4)CC3)c(C)o2)cc1OC | -37.7
88 | CCCN1CCN(CCCNC(=O)C(CC)n2nc(C)c3sc4ccccc4c3c2=O)CC1 (stereo not shown) | -48.4
